# Reference: the supplement of paper PMC5499739
# Over roughly 16,000 sequences, “Z-score” has its median near -0.37; the highest 2% begin near 3.2. This is one part of the list.
# Tested on: RBM10 RRM1-ZnF (GST-tagged construct)
# Assay: RNAcompete 7-mer binding Z-score; higher = stronger binding preference
# Outline: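 A one-sided Z-score for enrichment, taken across the probes containing each heptamer motif, was assigned to every such motif. The RNA came from a designed pool of 241 399 sequences up to 41 nt (1.5 nmol), bound by 20 pmol of GST-tagged RBM10 constructs in 1 ml Hepes pH 7.8 buffer with glutathione Sepharose beads for 30 min at 4°C. Four 2-min washes at 4°C preceded identification of bound RNA by microarray hybridisation.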
row,Sequence,RNAcompete 7-mer binding Z-score
1,GGGGAGC,2.29
2,CCAAAAG,-0.392
3,ACAGAGC,0.0365
4,UAGCAAG,0.15
5,UAGACCA,-0.542
6,GAUCCCG,-0.675
7,UGCUUUG,-0.558
8,UCCUGAA,-0.73
9,AUUUACC,-0.935
10,UGAUUCG,-0.334
11,AUAGUAG,0.595
12,CCCCUAU,-0.704
13,ACUCUAA,-0.685
14,ACGAAGC,-0.311
15,AAGAAGA,1.11
16,AGAGGUU,0.787
17,GAAGAAC,0.0528
18,CCCGUAC,-0.642
19,UCAGUUC,-0.805
20,CGAAAUG,0.03
21,UGCAUUG,-0.337
22,GUCUAUA,-0.607
23,UUCGGUG,0.108
24,CGAUGUC,-0.662

row,Sequence,RNAcompete 7-mer binding Z-score
1,GUGAGAG,1.85
2,UGGUAUA,0.936
3,UCAAUGG,0.54
4,AAUGUCG,-0.184
5,CACUAUU,-0.776
6,UCUGCGC,-0.694
7,AGACUCA,-0.883
8,CUCCUUC,-0.795
9,UGGCACU,0.0203
10,AUCACUA,-0.552
11,CUAUUGC,-0.714
12,AACCACU,-0.626
13,UAAGUUC,-0.522
14,CAGCGUG,0.443
15,UCCGCAA,-0.828
16,AGUGGUA,2.01
17,CCGUGCA,-0.568
18,GAGGGUG,3.75
19,GGCAGUC,0.28
20,UUGAGUG,0.602
21,AGUUCCG,-0.561
22,CUCCACA,-0.685
23,CCAGAAA,-0.717
24,CGCUAUC,-0.668

row,Sequence,RNAcompete 7-mer binding Z-score
1,CCCAUAC,-0.844
2,GUGAAAC,-0.0479
3,UGGAAGA,2.63
4,UAGGGCG,2.22
5,UAGUAGC,-0.0739
6,AGAUACC,-0.873
7,GUGUGCC,-0.0382
8,GGACGGU,2.29
9,UUCCUAU,-0.873
10,CAUCCAA,-0.759
11,UGUUAAA,-0.532
12,UGAUCCU,-0.743
13,GGUUAGG,4.59
14,UAUUUUG,-0.733
15,AGAACGA,-0.288
16,GAAGCUU,-0.578
17,GCCGGAA,0.332
18,UAGGCAG,1.17
19,CCUGGAA,-0.522
20,AUUCGGG,0.966
21,CCCCGGA,-0.0837
22,GUGGAAG,3.83
23,CCAACCC,-0.61
24,CAAGCAG,-0.0122

row,Sequence,RNAcompete 7-mer binding Z-score
1,UCUUAUA,-0.821
2,UCCCCAC,-0.402
3,AGCGGCC,-0.305
4,AUCCUUG,-0.772
5,CUCCACU,-0.785
6,GAAAAUA,-0.0674
7,GACAUCU,-0.662
8,UGCGCGG,0.621
9,GUUGUCU,-0.597
10,GAGAAAG,1.53
11,UCCGGAC,-0.539
12,AGAAGGC,0.699
13,ACUAUUC,-0.847
14,CGAGAAU,-0.0674
15,AUCUAGG,0.179
16,UGCUUAC,-0.766
17,GGCCCUG,-0.269
18,AGAGUGU,0.638
19,GACAUUA,-0.337
20,GUCCCAU,-0.591
21,CGACACG,-0.0739
22,GGAGGCC,0.953
23,UAAAUUG,-0.305
24,ACCCCCU,-0.542

row,Sequence,RNAcompete 7-mer binding Z-score
1,AUGUUUC,-0.477
2,GCGUACU,-0.331
3,CCCCCAC,-0.214
4,AGUACUU,-0.636
5,CGGCGGU,0.69
6,CUUACUC,-0.815
7,ACAGGCC,-0.0512
8,CCACCCG,-0.389
9,GCGAAGG,2.06
10,GCACUAG,-0.0155
11,CCCAGAU,-0.756
12,AGCAGAC,0.0398
13,GGGGUUU,3.16
14,AGUUAAU,-0.236
15,GUCUGGA,-0.035
16,GAUCUGU,-0.506
17,GAGGCAG,1.12
18,UCUACAG,-0.665
19,CGUUUCU,-0.818
20,GGCGGUC,0.657
21,CAGUGGU,0.787
22,GAGGAUA,2.15
23,AAUUUAU,-0.49
24,GACCAUC,-0.867

row,Sequence,RNAcompete 7-mer binding Z-score
1,UCAAAUG,-0.373
2,AUUUGGC,-0.457
3,CGAAGUG,0.722
4,GCUCUAC,-0.707
5,AUGGCAU,0.514
6,GGUCAAG,1.18
7,AGAACAA,-0.136
8,UGUGAUG,0.339
9,AGGCGCC,-0.366
10,AGAGGGU,2.22
11,UGAGGAA,1.63
12,CUGUAUU,-0.746
13,AAACGAC,-0.487
14,CCAGGCU,-0.607
15,GAUGCUG,0.196
16,CAAAUGC,-0.73
17,GUGUGUC,0.137
18,CGACAAA,-0.483
19,CCAAUAU,-0.714
20,UGUCUCG,-0.649
21,CGGUAGG,1.82
22,CCUUCCA,-0.717
23,UGCCUCA,-0.808
24,AUUUGGG,1.65

row,Sequence,RNAcompete 7-mer binding Z-score
1,UGCGCAU,-0.285
2,GGGUUUU,2.53
3,GUUCCGC,-0.568
4,GGAGCUC,0.15
5,AGGAGCA,1.5
6,GAGAUGC,0.235
7,AGAUAUA,-0.181
8,AUCGGAA,0.196
9,AUACGCU,-0.581
10,CUUGAUU,-0.75
11,CACAACA,-0.363
12,GAAACUG,-0.126
13,CAAGUGA,0.0333
14,UCCCCCA,-0.389
15,CCGUCCA,-0.633
16,AUCAUGG,0.586
17,GGCUUAA,-0.0122
18,GCGUCGG,0.703
19,UUAGGUC,-0.158
20,CUCCUGA,-0.756
21,CGCUGGA,0.00729
22,GGACUUC,-0.0999
23,UGGGUCC,1.1
24,AUCCUGG,-0.571

row,Sequence,RNAcompete 7-mer binding Z-score
1,AUGUCUU,-0.789
2,GUCGGAC,0.108
3,CGUCGCG,-0.0837
4,CACCAGA,-0.558
5,GGCCCCA,-0.457
6,CGGAUGU,1.04
7,UAUCUUA,-0.756
8,CUACCAA,-0.642
9,CGACUAA,-0.672
10,GUGUGGU,2.39
11,GUAGAUA,0.384
12,AGAUGAG,1.43
13,UCCACUA,-0.704
14,AGCACGA,0.0365
15,UAGCCAC,-0.441
16,GGCUCCA,-0.366
17,GUCUACU,-0.649
18,ACAGGGG,3.33
19,CAGCUCA,-0.837
20,GGCACGC,0.316
21,GGUAGUC,1.25
22,AACAAGC,-0.331
23,CACCAAC,-0.714
24,GUGUUAU,-0.0512

row,Sequence,RNAcompete 7-mer binding Z-score
1,GGCCAAG,0.0495
2,ACAGAAC,-0.396
3,UAAUACA,-0.373
4,CAGAGAC,-0.136
5,AUUGUCG,-0.34
6,GAUUAUC,-0.5
7,GGUCAUA,0.199
8,UUUAACG,-0.594
9,GGAUCAA,0.677
10,AGCCAUA,-0.646
11,UUACCUA,-0.772
12,UCCAAGG,-0.0999
13,AUCAUUU,-0.863
14,CUCGCGG,0.0138
15,UGUCAUC,-0.571
16,CGUCUUC,-0.815
17,UGUUGCU,-0.633
18,AGAAUCG,-0.129
19,UAUUAAG,-0.425
20,GCUGGGU,2.3
21,GCCUACU,-0.902
22,ACAAACG,-0.149
23,UAGGGUA,3.47
24,GGAGGUG,3.72

row,Sequence,RNAcompete 7-mer binding Z-score
1,AUGUAGA,0.521
2,CCGUCAU,-0.659
3,GCAAUUU,-0.633
4,GUGUAAG,1.19
5,GCUGUAG,0.0333
6,CACCCGG,-0.227
7,UCCGGAG,-0.0447
8,CUGGCGC,-0.0902
9,AUUAUGA,-0.106
10,CAGAACC,-0.578
11,UGUUCAA,-0.604
12,GCGUUGC,-0.22
13,GCCUUCG,-0.772
14,CGUUGCU,-0.552
15,UGUUGUU,-0.113
16,CUCUAGC,-0.802
17,UGAUACC,-0.318
18,UCCAUAU,-0.688
